# Data reported in the supplement of paper PMC11417369.
# ± gives the standard deviation of the averaged measurements. The list shows a part of the results.
# System: PfAP2-EXP AP2 domain (GST-tagged)
# Assay: gcPBM binding intensity (ln(normalized median fluorescence intensity)); higher = stronger DNA binding
# Method in brief: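 An Agilent 4 × 180k array carrying primer-extended double-stranded 36-bp intergenic genomic probes and negative controls received GST-tagged P. falciparum DNA-binding domains expressed in E. coli, about 25 μg on average, for 1 h. The binding buffer contained 1× PBS, 1% milk, 0.2 mg/ml BSA, 0.5% salmon testes DNA and 0.03% Triton X-100. Binding intensity is the top Masliner-normalised natural-log median intensity across replicate spots of either probe orientation, read after Alexa488 anti-GST antibody staining and a 488 nm scan.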
row,Sequence,gcPBM binding intensity (ln)
1,AGGAGGAACAAACAAAACAATAAAAATTATAATAAA [GTGCAC_negctrl_site206],8.79 ± 0.44
2,TTCCAAGAAATAATAGTGCATTATTCATTTTAATAA,8.62 ± 0.27
3,TTCAAAGACACAATCACACACATACATAAATATACA [CACACA_site687],8.66 ± 0.52
4,AATATACATAACAAGGTGCAAAAAATATTGTTCATA [GTGCAC_site9499],9.19 ± 0.26
5,TTATTATTATGATTATTATGATGATTATACAACTGT [TGCATGCA_negctrl_site241],8.26 ± 0.42
6,TATTAATTATAAGATGCATGTGCAAAAATATGTTCC [TGCATGCA_site51],9.01 ± 0.36
7,ATAATATTTTATTATACATGCAAATTATTATATATA [TGCATGCA_site40],8.43 ± 0.43
8,TTTCTTTGTATTTATAGTACATATTTTAATAACTGC [XGTACX_site6673],8.53 ± 0.42
9,TAAAAATTAAAAAGGGTGCAAAAAAAAAAAAAAAAA [GTGCAC_site9733],8.45 ± 0.18
10,ACAAAATTTACAAAATGTACAAAGTATGTGTTTTAT [XGTACX_site6462],8.39 ± 0.48
11,TTTCCGGTAATATGGAGATATATGTGGGTTTTTTTT [GTGCAC_negctrl_site374],8.41 ± 0.58
12,AGAAAAAAGAGGGATACACACAAACATATATTTATA [CACACA_site7122],8.81 ± 0.29
13,ATATTTTTTTTTTTCACACACATTTATATTGTATTA [CACACA_site5695],8.81 ± 0.54
14,CACCCTTTGTTTTAGAGTACATATGTATATACGTAA [XGTACX_site7964],8.79 ± 0.43
15,GATTAAAATCAAAGGTGTACGCACAAATAAGTCCCA [XGTACX_site4360],8.68 ± 0.45
16,TATATATATTTATGTACACACATATATACCTTTCAT [CACACA_site5479],8.74 ± 0.23
17,TATATTTACTCTAAGTGTACATATTATTTTATAATA [XGTACX_site2046],8.29 ± 0.35
18,TTTTTTTTTTTTATTTGTACACATTTTCATATTTTT [XGTACX_site4406],8.71 ± 0.52
19,TATATATATATGTGCACACATAAAGATATTATTTTT [CACACA_site3733],9.95 ± 0.24
20,AATATATATATATATACATGCATATATTCCTTCCTT [TGCATGCA_site890],8.74 ± 0.32
21,ATTCTTTTAAACAGTACACACACACCGATATATATA [CACACA_site8213],8.96 ± 0.46
22,TTTGTGCCTATAAATTAACACACAGAAATATATAGA [CACACA_site8175],8.4 ± 0.36

row,Sequence,gcPBM binding intensity (ln)
1,AAAAACTTATATGATACACACGATAAACAAAATAAA [CACACA_site1039],8.91 ± 0.36
2,AATATATCATAATGATGTACAAGTAAAACCGTTACA [XGTACX_site4280],8.74 ± 0.52
3,TAACACATAAATAAATATATACATATATATAAAATA [CACACA_negctrl_site375],8.35 ± 0.38
4,ATAAAATAAAATTGGTGTACTTTTGATAAAATAAAA [XGTACX_site4264],8.24 ± 0.28
5,CAAAAATACATTATAATAATATGCACAATAATAAAT [XGTACX_negctrl_site263],8.93 ± 0.11
6,GATCTATATATCATTACACACTTGAATTACTTAAAA [CACACA_site21],8.49 ± 0.36
7,TTATGCATAAAAGGTGGTACTCCGTATATACATTCT [XGTACX_site4354],8.87 ± 0.4
8,AACTATAAAAGTTTTACACACTGTTTTTAAATAATG [CACACA_site7686],8.31 ± 0.45
9,TATTTATTTATAAATGCATGTCGCTCTTTTTATTAC [TGCATGCA_site626],8.86 ± 0.38
10,ATATATATATATATGTGTACATATAAGATAGAAGAA [XGTACX_site3198],10.2 ± 0.35
11,ATTATTATAGATATAACACACATAATTACATACTTA [CACACA_site6837],8.46 ± 0.23
12,TCCATAAATAATTGTAGTACACATACTATGTGACAT [XGTACX_site7268],8.56 ± 0.33
13,AAAAGTAAAAAAAGCACACACGAAAAAAAATAAAAA [CACACA_site5264],8.81 ± 0.59
14,TATTAAAAAAAAAAATAAAAAAATAAAATAAAATAA [CACACA_negctrl_site580],8.25 ± 0.45
15,ATAATATTTTAGAGCAGTACACTTTTATATTTATTG [XGTACX_site5728],8.54 ± 0.34
16,AGAGGAAAAATAAAAGGAAAAAAGAAAATAATATTG [CACACA_negctrl_site852],8.69 ± 0.57
17,ATATATTACAATATATGTACTTAATTTGCTTAAATA [XGTACX_site7912],8.18 ± 0.32
18,AAAATAAATATTACATGTACATATATATATATATAT [XGTACX_site8492],10.1 ± 0.44
19,TAAAACAGAATGAGGAGTACAAAAAGAAGAAAAGGG [XGTACX_site1246],9.06 ± 0.45
20,AAAAAAACAACATGCACACGCACACCCAAAAAAAGC [CACACA_site72],8.96 ± 0.42
21,ATCATTTTTAATAAATGTACAAGTTTTAAAAAAAAA [XGTACX_site7340],8.2 ± 0.47
22,GTAATCCACAAACACACACACATACACATATATATA [CACACA_site2728],8.78 ± 0.34

row,Sequence,gcPBM binding intensity (ln)
1,GTGTATTTTGTGCGCACACACATGCAAAAAGAAATA [CACACA_site6660],9.21 ± 0.31
2,TACACATGTTTAAAATGTACGTTTTATAACACACAC [XGTACX_site8229],8.88 ± 0.31
3,GGTAGGTGAATATATACACACATATATTATATATAT [CACACA_site1984],8.66 ± 0.18
4,TTTTACAAGTATTGATAAATAAGAAATATATAAAAT [CACACA_negctrl_site529],8.34 ± 0.4
5,AAAAAAAATTAAGCATGTATAAATATATATATATAT [CACACA_negctrl_site1540],10.1 ± 0.16
6,ATTTAATTTGTTCTTACACACACATATATATATATT [CACACA_site8310],9.03 ± 0.56
7,TCATACGAAATATAAACACACATACAATAAATAAAT [CACACA_site5156],8.78 ± 0.44
8,ATAATATAAATACAAACACACAATTGCGTCCACATT [CACACA_site5039],8.82 ± 0.38
9,ATTATAACCATATACACACCCATATAAATAAATATA [CACACA_site6926],8.71 ± 0.65
10,CGTTTTAATAAGATCACACATATAATATATATATAT [CACACA_site5159],9.54 ± 0.43
11,GGACAAGAATAGTGCACATGCAATGTTATTTTTTAT [TGCATGCA_site450],9.03 ± 0.21
12,TATTAAATGGCCATTACATGCAATTATTTCTAATAA [TGCATGCA_site275],8.59 ± 0.35
13,ATATTAAATGTTATCACACACATAATTACTTCCATA [CACACA_site7160],8.54 ± 0.36
14,TCAAATATATAGAATACACACATGGATATAAGAAAT [CACACA_site4065],8.94 ± 0.46
15,AACGCACGAGGACACACACACATATTTATATTTATA [CACACA_site6608],8.68 ± 0.33
16,TTTTTTAACTGTATGATGTTATATTAAAAATAAAAA [GTGCAC_negctrl_site463],8.12 ± 0.46
17,ATTTATATATAATATACACACATATAATACCCATAT [CACACA_site4548],8.48 ± 0.42
18,ATATATTTTATATAATGTACATAAACCGCACACATA [XGTACX_site6061],8.71 ± 0.42
19,TTTCAAATTTAATACACACACAAGTATATATCTATC [CACACA_site7782],8.41 ± 0.36
20,TTTAATATTAGCATATGTACACAAATCACACGGAAA [XGTACX_site2473],8.96 ± 0.41
21,TATATTATGACCACCACACACCTATACACATAACAT [CACACA_site7199],8.88 ± 0.43
22,TAATCCTTTCAATATTGTACACATTTGTGTTAAGAA [XGTACX_site1275],8.76 ± 0.31

row,Sequence,gcPBM binding intensity (ln)
1,ATTTAAAAAAAAAAAAAAAAAAAAAAAAAAAGAAAA [CACACA_negctrl_site722],8.01 ± 0.43
2,GTATATTTTTAAAGGTGTACTTTTTTTTTTTTTTTT [XGTACX_site721],8.57 ± 0.14
3,ATATAAAACTATAATACACACATAAAATATATTATA [CACACA_site6588],8.46 ± 0.43
4,TATATAATACAACATGCACACATATATATGTGAATC [CACACA_site8794],8.99 ± 0.39
5,ATAAATATATATATAGTGCATATAAGCCACCTTCAA [GTGCAC_site9628],8.86 ± 0.014
6,TATATTTATTTATTCTGTACTGAAGACAGTTATGTA [XGTACX_site8857],8.55 ± 0.46
7,CGTAATAAAAACAAATGTACATGACCTGGACAGGTT [XGTACX_site6560],8.9 ± 0.36
8,AAAAAAAAAAAAAGAGTGCAAACTATGATAATTTAA,8.57 ± 0.23
9,TTACCTTTATTGTATGAACACACATAAGCTGATACA [CACACA_site9334],8.54 ± 0.45
10,ACATATGAATATAATACACACTTGTATTATTAATAT [CACACA_site8546],8.34 ± 0.4
11,AAAATTTAATATAATGCACACATAAAAAAAAAAAAA [CACACA_site7923],8.47 ± 0.45
12,CCATTTTTTTTATACGCACACGTCATACTTTTAAAA [CACACA_site4988],9.08 ± 0.24
13,TTAGTTATTAAAAAAAGTACATAAGTAGATATCATC [XGTACX_site8712],8.48 ± 0.31
14,TATATATATACATATTGTACATGTGTATATTTTTTT [XGTACX_site361],8.93 ± 0.042
15,GAATAATATGGACATACACACATATACATACATATA [CACACA_site2114],8.58 ± 0.35
16,TTATTTCATTCTTGAAGTACGTGAAAAATGAAAACA [XGTACX_site4089],8.71 ± 0.39
17,TACTAATATGATATATAAATATTGTTATATAATAAT [XGTACX_negctrl_site227],8.08 ± 0.35
18,AAAATAAAAGAAAAAAGTACAAAATCAGATTAATTA [XGTACX_site8413],8.51 ± 0.51
19,TGAATACAAATTTACGCATGTAATTTCCAGAGGGAG [TGCATGCA_site769],8.74 ± 0.37
20,AATATATGTAATATATGTACTTAATTATATTTTAAT [XGTACX_site4382],8.06 ± 0.35
21,TATAAAATATAATTAGCACACATATATAAAATATAT [CACACA_site9355],8.21 ± 0.34
22,GTAGACTGAAACCACACACACATATATATATATATT [CACACA_site605],8.66 ± 0.42
